Results reported in PubChem BioAssay AID504332 (National Center for Advancing Translational Sciences (NCATS), 2011).
About 31,000 (8.9%) of roughly 350,000 compounds were called active. The shares of active, inactive and inconclusive entries below differ from those in the screen. Calls follow the shape of the dose curve; as a rule, active = well fitted inhibition curve with a large enough effect; inconclusive = small, poorly fitted or top-dose-only effect; inactive = no such curve, though single readings can be large or run the other way. Where the call is inconclusive, the potency comes from a doubtful curve fit.

molecular target: Histone-lysine N-methyltransferase EHMT2 (Homo sapiens) (UniProt Q96KQ7); assay: qHTS Assay for Inhibitors of Histone Lysine Methyltransferase G9a; conditions: G9a H3K9 monomethylation, AlphaScreen, 2 h; activity, negative = inhibition: at 59 µM (top of the series) unless noted; also: nearly all actives have a fitted effect of over 75% in size
How it was run: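 Using a bead-based AlphaScreen, monomethylated H3K9 product from 2 h room-temperature reactions (G9a 20 nM, peptide 500 nM, SAM 20 uM) was detected with 0.5 ug/mL rabbit anti-H3K9me1 antibody.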
% is scaled to controls: 0 for no effect and ±100 for the full control effect; potency is read from the fitted curve at half-maximal effect; tags tell the direction and shape of the fitted curve.

Sequence of UniProt Q96KQ7 (Q96KQ7 whole entry, looked up): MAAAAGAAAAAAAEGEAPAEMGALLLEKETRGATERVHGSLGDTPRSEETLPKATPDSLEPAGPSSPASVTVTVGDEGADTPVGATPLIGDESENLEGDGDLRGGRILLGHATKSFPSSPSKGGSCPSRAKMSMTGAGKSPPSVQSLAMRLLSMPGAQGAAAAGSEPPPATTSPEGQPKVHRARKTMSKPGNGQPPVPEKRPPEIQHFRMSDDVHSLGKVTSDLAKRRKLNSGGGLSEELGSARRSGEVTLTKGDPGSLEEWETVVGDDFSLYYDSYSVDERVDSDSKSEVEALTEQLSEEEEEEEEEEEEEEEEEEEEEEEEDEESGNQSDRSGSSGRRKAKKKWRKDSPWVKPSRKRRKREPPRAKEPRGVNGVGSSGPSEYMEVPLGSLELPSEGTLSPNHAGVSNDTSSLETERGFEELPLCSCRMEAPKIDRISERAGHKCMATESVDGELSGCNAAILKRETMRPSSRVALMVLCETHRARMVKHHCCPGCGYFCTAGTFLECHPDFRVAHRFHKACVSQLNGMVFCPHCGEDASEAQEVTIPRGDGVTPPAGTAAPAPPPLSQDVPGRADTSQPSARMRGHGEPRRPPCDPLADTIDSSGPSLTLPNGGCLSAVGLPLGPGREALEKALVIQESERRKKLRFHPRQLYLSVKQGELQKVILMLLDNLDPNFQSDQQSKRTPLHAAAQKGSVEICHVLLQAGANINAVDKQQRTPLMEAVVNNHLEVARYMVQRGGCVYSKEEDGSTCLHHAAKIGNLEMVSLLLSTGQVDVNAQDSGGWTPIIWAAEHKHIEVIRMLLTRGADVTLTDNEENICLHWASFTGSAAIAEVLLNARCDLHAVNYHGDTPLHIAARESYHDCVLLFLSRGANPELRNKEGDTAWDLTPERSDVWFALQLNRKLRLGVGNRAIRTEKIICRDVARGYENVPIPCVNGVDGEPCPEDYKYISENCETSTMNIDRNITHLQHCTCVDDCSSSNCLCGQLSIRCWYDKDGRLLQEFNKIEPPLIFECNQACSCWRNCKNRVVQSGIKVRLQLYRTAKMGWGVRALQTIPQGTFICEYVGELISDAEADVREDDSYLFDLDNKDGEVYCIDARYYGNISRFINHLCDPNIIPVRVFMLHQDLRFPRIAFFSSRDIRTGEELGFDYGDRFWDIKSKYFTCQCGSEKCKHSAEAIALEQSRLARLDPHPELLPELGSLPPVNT

Row | SMILES | activity, negative = inhibition | Potency
1 | CC1CN(c2nc(N(C)c3ccccc3)nc(N)c2[N+](=O)[O-])CC(C)O1 (stereo not given) | inactive: -36.8% [at 102 µM] | –
2 | Cc1cccc(Oc2nc3c(C)cccn3c(=O)c2/C=C(\C#N)c2nc3ccccc3[nH]2)c1 | inactive: -6.19% | –
3 | CC1CN(CCOc2ccc(Cl)c(Cl)c2)CC(C)O1 (stereo not given) | – | active: 8.91 µM
4 | Cc1cc(C)c2c(=O)cc(CSCC(=O)Nc3ccccc3Cl)[nH]c2c1 | inactive: 0.791% | –
5 | C=C(C)C(=O)Nc1cccc(C2=NOC3(C2)C[C@@H](C(N)=O)N(C(=O)CCCCC)C3)c1 (stereo not given in full) | – | inconclusive: 1.26 µM [inhibitor, partial curve, poor fit]
6 | COc1cc(Cl)c(NC(=O)CCS(=O)(=O)c2cc3c(cc2Cl)NC(=O)CO3)c(OC)c1 | inactive: 7.19% | –
7 | COc1cc(-c2cc(OC)c3c(C)oc(C)c3c(=O)c2)ccc1OC(=O)c1ccccc1Cl | – | inconclusive: 15.8 µM [inhibitor, partial curve, poor fit]
8 | COc1ccc(OC)c2sc(N3CCN(C(=O)C(C)(C)C)CC3)nc12 | inactive: -29.1% | –
9 | Cc1ccccc1NCC(=O)N=Nc1c(O)[nH]c2ccc([N+](=O)[O-])cc12 | – | inconclusive: 79.4 µM [inhibitor, single point]
10 | Cc1cc(Br)cc(C)c1NC(=S)NC(=O)CC(C)C | – | inconclusive: 17.8 µM [inhibitor, partial curve, poor fit]
11 | CCCC(=O)C1C(=O)CC(CC(C)SCC)CC1=O (stereo not given) | – | active: 79.4 µM
12 | CC(=O)Nc1ccc(NC(=O)C2CC(=O)N(Cc3ccco3)C2)cc1 (stereo not given) | – | active: 15.8 µM
13 | O=C(O)/C=C\c1ccc(O)c(O)c1 | – | active: 2.51 µM
14 | O=S(=O)(Nc1c(S(=O)(=O)c2ccccc2)c2nc3ccccc3nc2n1C1CCCCC1)c1ccccc1 | inactive: 2.78% | –
15 | CCC(Oc1ccc(C)cc1)C(=O)Nc1ccccc1C(=O)N1CCOCC1 (stereo not given) | – | inconclusive: 15.8 µM [inhibitor, partial curve, poor fit]
16 | COc1ccc(CNS(=O)(=O)c2cnc(N)nc2)c(OC)c1 | inactive: -3.8% | –
17 | CCOc1ccc(C2C(C(=O)c3cccs3)=C(O)C(=O)N2CCN2CCOCC2)cc1 (stereo not given) | – | active: 50.1 µM
18 | COc1cccc(Nc2nnc(SCc3cc([N+](=O)[O-])cc4c3OCOC4)s2)c1 | – | inconclusive: 1.78 µM [inhibitor, partial curve, poor fit]
19 | COc1ccc(CNC(=O)c2ccc(N3CCCC3)c(NC(=O)NCc3ccc(F)cc3)c2)cc1 | – | inconclusive: 20 µM [inhibitor, partial curve, poor fit]
20 | Cc1cccc(NC(=O)CCS(=O)(=O)c2ccccc2)n1 | – | inconclusive: 56.2 µM [inhibitor, single point]
21 | CSc1ccc(S(=O)(=O)N2CCC(C(=O)NCC3CCCO3)CC2)cc1 (stereo not given) | – | inconclusive: 89.1 µM [inhibitor, single point]
22 | CC1CCN(C(=S)c2ccc(-c3ccc(Cl)cc3Cl)o2)CC1 | – | active: 8.91 µM
23 | Cc1ccc2cc(CCNC(=O)C(C)C)c(=O)[nH]c2c1C | – | inconclusive: 70.8 µM [inhibitor, single point]

Row | SMILES | activity, negative = inhibition | Potency
24 | CN(C)c1oc(-c2ccco2)nc1C#N | inactive: 4.85% | –
25 | CCOc1ccc(C(=O)Oc2cc(C)[nH]c(=O)c2[N+](=O)[O-])cc1OCC | – | inconclusive: 50.1 µM [inhibitor, partial curve, poor fit]
26 | O=[N+]([O-])c1ccccc1/C=C\C=N\N1CCN(c2ccccc2)CC1 | – | active: 11.2 µM
27 | Cc1cccc(CCNc2nc3ccc(C)cc3n3cnnc23)c1 | – | inconclusive: 1.41 µM [inhibitor, single point]
28 | CCOC(=O)C1C(=O)CC(C)(O)C(C(=O)OCC)C1c1cccc(OC)c1 (stereo not given) | – | inconclusive: 0.501 µM [inhibitor, partial curve, poor fit]
29 | CC(=O)c1cc(NC(=O)c2ccc(Cl)cc2)c(=O)oc1/C=C/N(C)C | inconclusive: -64.8% [inhibitor] [at 12.7 µM] | –
30 | CCOC(=O)CSC1=C(C#N)C(c2ccc(C)o2)CC(=O)N1 (stereo not given) | – | inconclusive: 39.8 µM [inhibitor, single point]
31 | CCn1nnc2cc(C(=O)N(CCOC)CC(=O)Nc3cccc(C)c3C)ccc21 | inactive: 8.32% [at 2.33 µM] | –
32 | Oc1ccc(NC(=S)Nc2ccccc2)cc1 | – | active: 50.1 µM
33 | Cn1cccc1C(=O)N1CCC2(CC1)CCN(c1cccc(-c3ccccc3)c1)CC2 | inactive: -18.8% [at 12.7 µM] | –
34 | COc1cccc(C2c3c(oc4ccccc4c3=O)C(=O)N2CCCN2CCOCC2)c1 (stereo not given) | – | active: 50.1 µM
35 | CCOC(=O)N1CCN(c2c(N3CCN(c4ccccc4OC)CC3)c(=O)c2=O)CC1 | – | inconclusive: 22.4 µM [inhibitor, full curve, poor fit]
36 | CCC1CN(C(=O)N2CCC(C(=O)NCCN(CC)CC)CC2)c2cc(C)ccc2O1 (stereo not given) | – | inconclusive: 22.4 µM [inhibitor, partial curve, poor fit]
37 | CCOC(=O)c1scc(-c2ccccc2)c1S(=O)(=O)Nc1cc(OC)cc(OC)c1 | – | inconclusive: 39.8 µM [inhibitor, partial curve, poor fit]
38 | NS(=O)(=O)c1ccc(S(=O)(=O)N(CCc2ccccc2)Cc2ccccn2)cc1 | inactive: 17.5% [at 102 µM] | –
39 | Cc1cc(C)n(C(=O)c2ccc([N+](=O)[O-])cc2Cl)n1 | – | inconclusive: 70.8 µM [inhibitor, single point]
40 | CCCCn1c2ccccc2c2nnc(SCC(=O)NC3=NN=C(c4ccccc4)CS3)nc21 | – | active: 28.2 µM
41 | O=S1(=O)C=C(Oc2ccc(F)cc2)c2ccccc21 | – | inconclusive: 56.2 µM [inhibitor, partial curve, poor fit]
42 | CC(=O)N1CCC2(CC1)CN(Cc1ccccc1)C2 | inactive: 7.86% [at 12.7 µM] | –
43 | COc1ccc(CC(=O)N2CCc3cc(OC)c(OC)cc3C2COc2ccc(OC)cc2)cc1 (stereo not given) | – | inconclusive: 12.6 µM [inhibitor, partial curve, poor fit]
44 | COc1ccc(N2CCN(C(=O)Cc3coc4cc(C)ccc34)CC2)cc1 | – | active: 44.7 µM
45 | COC(=O)c1c(NC(=O)c2cccnc2)sc(C(=O)N(C)C)c1C | – | inconclusive: 28.2 µM [inhibitor, single point]
